# The list shows a part of the results.
# Legend:
# Assay in all cases: glycan array binding signal (z-score within array); higher = stronger binding
# Conditions in all cases: glycan notation: IUPAC condensed, linker removed
# [1] = molecular target: GalNAc(b1-4)GlcNAc
# How it was run: (§1)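 The Consortium for Functional Glycomics database supplied 3228 glycan arrays, of which those lacking an available protein sequence were dropped. The binding signal, a within-array Z-score, was averaged across arrays of the same protein sequence and across linkers. Negative scores can be read as non-binding.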
# [2] = molecular target: GalNAc(b1-4)GlcNAc(b1-2)Man
# How it was run: as §1
# [3] = molecular target: GalNAc(b1-4)GlcNAc(b1-2)Man(a1-3)[GalNAc(b1-4)GlcNAc(b1-2)Man(a1-6)]Man(b1-4)GlcNAc(b1-4)GlcNAc
# How it was run: as §1
# [4] = molecular target: GalNAc(b1-4)GlcNAc(b1-3)GalNAc(b1-4)GlcNAc
# How it was run: as §1
# [5] = molecular target: GalNAc(b1-4)GlcNAc6S
# How it was run: as §1
# [6] = molecular target: GalNAc(b1-6)GalNAc
# How it was run: as §1
# [7] = molecular target: GalNAc3S(b1-4)GlcNAc
# How it was run: as §1
# [8] = molecular target: GalNAc3S(b1-4)GlcNAc3S
# How it was run: as §1
# [9] = molecular target: GalNAc3S(b1-4)[Fuc(a1-3)]GlcNAc
# How it was run: as §1
# [10] = molecular target: GalNAc4S6S(b1-4)GlcNAc
# How it was run: as §1
# [11] = molecular target: GalNAc6S(b1-4)GlcNAc
# How it was run: as §1
# [12] = molecular target: Glc(a1-4)Glc
# How it was run: as §1
# [13] = molecular target: Glc(a1-4)Glc(a1-4)Glc(a1-4)Glc
# How it was run: as §1
# [14] = molecular target: Glc(a1-6)Glc(a1-6)Glc
# How it was run: as §1
# [15] = molecular target: Glc(a1-6)Glc(a1-6)Glc(a1-6)Glc
# How it was run: as §1
# [16] = molecular target: Glc(b1-4)Glc
# How it was run: as §1
# [17] = molecular target: Glc(b1-6)Glc
# How it was run: as §1
# [18] = molecular target: GlcA(b1-3)Gal
# How it was run: as §1
# [19] = molecular target: GlcA(b1-3)GlcNAc
# How it was run: as §1
# [20] = molecular target: GlcA(b1-6)Gal
# How it was run: as §1
# [21] = molecular target: GlcA3S(b1-3)Gal(b1-4)GlcNAc(b1-2)Man
# How it was run: as §1
# [22] = molecular target: GlcA3S(b1-3)Gal(b1-4)GlcNAc(b1-3)Gal(b1-4)Glc
# How it was run: as §1
# [23] = molecular target: GlcNAc(a1-3)Gal(b1-4)GlcNAc
# How it was run: as §1
# [24] = molecular target: GlcNAc(a1-4)Gal(b1-3)GlcNAc
# How it was run: as §1
# [25] = molecular target: GlcNAc(a1-4)Gal(b1-4)GalNAc
# How it was run: as §1
# [26] = molecular target: GlcNAc(a1-4)Gal(b1-4)GlcNAc
# How it was run: as §1
# [27] = molecular target: GlcNAc(a1-4)Gal(b1-4)GlcNAc(b1-3)Gal(b1-4)Glc
# How it was run: as §1
# [28] = molecular target: GlcNAc(a1-4)Gal(b1-4)GlcNAc(b1-3)Gal(b1-4)GlcNAc
# How it was run: as §1
# [29] = molecular target: GlcNAc(a1-4)Gal(b1-4)GlcNAc(b1-3)Gal(b1-4)GlcNAc(b1-3)Gal(b1-4)GlcNAc
# How it was run: as §1
# [30] = molecular target: GlcNAc(a1-4)Gal(b1-4)GlcNAc(b1-3)Gal(b1-4)[Fuc(a1-3)]GlcNAc(b1-3)Gal(b1-4)[Fuc(a1-3)]GlcNAc
# How it was run: as §1
# [31] = molecular target: GlcNAc(a1-6)Gal(b1-4)GlcNAc
# How it was run: as §1
# [32] = molecular target: GlcNAc(b1-2)Gal(b1-3)GalNAc
# How it was run: as §1
# [33] = molecular target: GlcNAc(b1-2)Man(a1-3)[GlcNAc(b1-2)Man(a1-6)]Man(b1-4)GlcNAc(b1-4)GlcNAc
# How it was run: as §1
# [34] = molecular target: GlcNAc(b1-2)Man(a1-3)[GlcNAc(b1-2)Man(a1-6)]Man(b1-4)GlcNAc(b1-4)[Fuc(a1-6)]GlcNAc
# How it was run: as §1
# [35] = molecular target: GlcNAc(b1-2)Man(a1-3)[GlcNAc(b1-4)][GlcNAc(b1-2)Man(a1-6)]Man(b1-4)GlcNAc(b1-4)GlcNAc
# How it was run: as §1
# [36] = molecular target: GlcNAc(b1-2)Man(a1-3)[GlcNAc(b1-4)][GlcNAc(b1-2)Man(a1-6)]Man(b1-4)GlcNAc(b1-4)[Fuc(a1-6)]GlcNAc
# How it was run: as §1
# [37] = molecular target: GlcNAc(b1-2)[GlcNAc(b1-4)]Man(a1-3)[GlcNAc(b1-2)Man(a1-6)]Man(b1-4)GlcNAc(b1-4)GlcNAc
# How it was run: as §1
# [38] = molecular target: GlcNAc(b1-2)[GlcNAc(b1-4)]Man(a1-3)[GlcNAc(b1-4)][GlcNAc(b1-2)Man(a1-6)]Man(b1-4)GlcNAc(b1-4)GlcNAc
# How it was run: as §1
# [39] = molecular target: GlcNAc(b1-2)[GlcNAc(b1-4)]Man(a1-3)[GlcNAc(b1-4)][GlcNAc(b1-2)[GlcNAc(b1-6)]Man(a1-6)]Man(b1-4)GlcNAc(b1-4)GlcNAc
# How it was run: as §1
# [40] = molecular target: GlcNAc(b1-2)[GlcNAc(b1-4)]Man(a1-3)[GlcNAc(b1-4)][GlcNAc(b1-2)[GlcNAc(b1-6)]Man(a1-6)]Man(b1-4)GlcNAc(b1-4)[Fuc(a1-6)]GlcNAc
# How it was run: as §1
# [41] = molecular target: GlcNAc(b1-2)[GlcNAc(b1-6)]Man(a1-6)[GlcNAc(b1-2)Man(a1-3)]Man(b1-4)GlcNAc(b1-4)GlcNAc
# How it was run: as §1
# [42] = molecular target: GlcNAc(b1-2)[GlcNAc(b1-6)]Man(a1-6)[GlcNAc(b1-2)Man(a1-3)]Man(b1-4)GlcNAc(b1-4)[Fuc(a1-6)]GlcNAc
# How it was run: as §1
# [43] = molecular target: GlcNAc(b1-2)[GlcNAc(b1-6)]Man(a1-6)[GlcNAc(b1-4)][GlcNAc(b1-2)Man(a1-3)]Man(b1-4)GlcNAc(b1-4)GlcNAc
# How it was run: as §1
# [44] = molecular target: GlcNAc(b1-3)Fuc
# How it was run: as §1
# [45] = molecular target: GlcNAc(b1-3)Gal
# How it was run: as §1
binder,measurement,setting,value
Banana lectin (Musa acuminata) (protein) MNGAIKVGAWGGNGGSAFDMGPAYRIISVKIFSGDVVDAVDVTFTYYGKTETRHFGGSGGTPHEIVLQEGEYLVGMKGEFGNYHGVVVVGKLGFSTNKKSYGPFGNTGGTPFSLPIAAGKISGFFGRGGDFIDAIGVYLEP,glycan array binding signal (z-score),[1],-0.192
same,glycan array binding signal (z-score),[2],-0.193
same,glycan array binding signal (z-score),[3],-0.19
same,glycan array binding signal (z-score),[4],-0.195
same,glycan array binding signal (z-score),[5],-0.195
same,glycan array binding signal (z-score),[6],-0.195
same,glycan array binding signal (z-score),[7],-0.193
same,glycan array binding signal (z-score),[8],-0.192
same,glycan array binding signal (z-score),[9],-0.191
same,glycan array binding signal (z-score),[10],-0.193
same,glycan array binding signal (z-score),[11],-0.19
same,glycan array binding signal (z-score),[12],-0.146
same,glycan array binding signal (z-score),[13],-0.195
same,glycan array binding signal (z-score),[14],-0.187
same,glycan array binding signal (z-score),[15],-0.191
same,glycan array binding signal (z-score),[16],-0.194
same,glycan array binding signal (z-score),[17],-0.098
same,glycan array binding signal (z-score),[18],-0.191
same,glycan array binding signal (z-score),[19],-0.187
same,glycan array binding signal (z-score),[20],-0.194
same,glycan array binding signal (z-score),[21],-0.196
same,glycan array binding signal (z-score),[22],-0.195
same,glycan array binding signal (z-score),[23],0.764
same,glycan array binding signal (z-score),[24],0.003
same,glycan array binding signal (z-score),[25],-0.174
same,glycan array binding signal (z-score),[26],-0.097
same,glycan array binding signal (z-score),[27],-0.144
same,glycan array binding signal (z-score),[28],-0.098
same,glycan array binding signal (z-score),[29],0.058
same,glycan array binding signal (z-score),[30],-0.075
same,glycan array binding signal (z-score),[31],-0.189
same,glycan array binding signal (z-score),[32],-0.194
same,glycan array binding signal (z-score),[33],0.41
same,glycan array binding signal (z-score),[34],-0.15
same,glycan array binding signal (z-score),[35],-0.198
same,glycan array binding signal (z-score),[36],-0.193
same,glycan array binding signal (z-score),[37],-0.188
same,glycan array binding signal (z-score),[38],-0.196
same,glycan array binding signal (z-score),[39],-0.196
same,glycan array binding signal (z-score),[40],-0.196
same,glycan array binding signal (z-score),[41],-0.17
same,glycan array binding signal (z-score),[42],-0.125
same,glycan array binding signal (z-score),[43],-0.2
same,glycan array binding signal (z-score),[44],-0.192
same,glycan array binding signal (z-score),[45],-0.194

# Source: the supplement of paper PMC8728848
